Measured values: paper PMC4336329 (PLoS ONE, 2015)
Among all 310,000 compounds or so, about 14,000 (4.5%) showed an effect of 50% or more. The effect is printed as a negative number. This is one part of the list.

The molecules below were run against human ether-à-go-go-related gene (hERG) potassium channel (human, UniProt Q12809) (assay: primary screen, population patch clamp on CHO cells stably expressing hERG).
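Further: peak tail current of the secondary pulse compared with the same well before compound.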

Chain of human ether-à-go-go-related gene (hERG) potassium channel (Q12809 whole entry, looked up): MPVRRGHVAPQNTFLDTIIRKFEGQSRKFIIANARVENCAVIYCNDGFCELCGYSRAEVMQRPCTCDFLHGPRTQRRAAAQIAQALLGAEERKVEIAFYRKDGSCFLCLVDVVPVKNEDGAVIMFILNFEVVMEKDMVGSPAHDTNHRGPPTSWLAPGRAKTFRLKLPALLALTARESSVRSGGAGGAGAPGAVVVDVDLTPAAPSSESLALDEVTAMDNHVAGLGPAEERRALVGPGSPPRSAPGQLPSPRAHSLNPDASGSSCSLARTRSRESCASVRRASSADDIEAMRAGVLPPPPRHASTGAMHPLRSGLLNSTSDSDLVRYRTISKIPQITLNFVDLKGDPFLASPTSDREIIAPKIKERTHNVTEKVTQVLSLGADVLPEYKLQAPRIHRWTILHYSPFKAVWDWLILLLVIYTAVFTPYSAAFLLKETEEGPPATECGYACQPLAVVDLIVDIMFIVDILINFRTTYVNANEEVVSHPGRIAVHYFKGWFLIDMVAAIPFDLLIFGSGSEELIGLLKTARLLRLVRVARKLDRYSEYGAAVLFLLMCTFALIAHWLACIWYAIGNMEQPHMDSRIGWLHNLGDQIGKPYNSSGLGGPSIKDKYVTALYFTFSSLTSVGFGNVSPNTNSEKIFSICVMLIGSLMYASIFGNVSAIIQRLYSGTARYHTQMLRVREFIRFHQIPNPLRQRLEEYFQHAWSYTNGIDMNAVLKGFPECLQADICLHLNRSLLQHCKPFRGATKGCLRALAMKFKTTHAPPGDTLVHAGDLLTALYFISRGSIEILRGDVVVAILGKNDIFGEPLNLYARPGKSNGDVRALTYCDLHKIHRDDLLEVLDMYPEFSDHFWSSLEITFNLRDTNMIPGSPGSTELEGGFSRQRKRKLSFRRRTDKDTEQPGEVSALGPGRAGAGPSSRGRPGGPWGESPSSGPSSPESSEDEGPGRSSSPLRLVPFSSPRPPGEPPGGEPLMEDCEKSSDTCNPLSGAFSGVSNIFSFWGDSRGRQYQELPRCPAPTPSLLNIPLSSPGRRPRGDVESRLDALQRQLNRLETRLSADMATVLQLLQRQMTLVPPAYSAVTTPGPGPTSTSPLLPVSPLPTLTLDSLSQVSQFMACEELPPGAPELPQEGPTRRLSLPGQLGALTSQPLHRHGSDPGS

Row | Structure (SMILES) | hERG current change (%, negative = inhibition) at 10uM [%]
1 | O=C(NCCc1c[nH]c2ccccc12)c1cccc(S(=O)(=O)Nc2ccccc2Cl)c1 | 6.04
2 | Cn1c(Sc2ccc([N+](=O)[O-])cc2C(F)(F)F)nnc1-c1ccccc1 | -55
3 | CCn1c(Cc2ccccc2)nnc1SCC(=O)Nc1nc2ccccc2s1 | -0.933
4 | Cc1c(O)ccc2c(CN3CCN(C/C=C/c4ccccc4)CC3)cc(=O)oc12 | -64.1
5 | Nc1c(C(=O)NCC2CCCO2)c2nc3ccccc3nc2n1-c1ccccc1 (stereo not shown) | 2.35
6 | CCOC(=O)c1ccc(NC(=O)CSc2ncccn2)cc1 | 6.76
7 | CCOC(=O)/C=c1\s/c(=C(\C#N)C(=O)NC)n(-c2ccccc2)c1=O | 10.6
8 | COCCN=C1N[C@@H](c2ccc(Br)cc2)C(C(=O)OC)=C(C)N1Cc1ccccc1 | -55.3
9 | COc1ccc(CCNC(=O)c2cc(S(=O)(=O)N3CCOCC3)cn2C)cc1OC | -0.633
10 | O=C(Cn1c(C(F)(F)F)nc2ccccc21)Nc1ccccc1C(=O)O | 8.51
11 | COc1ccc(CN2CCN(C(=O)Cn3nc(C)n4cccc4c3=O)CC2)c(OC)c1OC | 17.2
12 | COc1cc(/C=N/n2c(-c3n[nH]c4c3CCC4)n[nH]c2=S)ccc1O | 21
13 | Cc1cccc(C(=O)N2CCCC(c3nc(-c4ccc(F)cc4)no3)C2)c1 (stereo not shown) | -9.94
14 | Cc1ccc(CCNC(=O)C2CCC(=O)N(Cc3cccc(F)c3)C2)cc1 (stereo not shown) | -4.64
15 | CCOC(=O)c1ccc(NC(=O)CN(C)S(=O)(=O)c2ccc(Br)s2)cc1 | 6.95
16 | C=CCC(NC(=O)c1ccc(C#N)cc1)C(=O)NCCC (stereo not shown) | -1.44
17 | Cc1oc2nc(SCC(=O)Nc3ccc(S(N)(=O)=O)cc3)nc(NC(=O)c3ccccc3)c2c1C | -2.65
18 | Nc1cc(=O)[nH]c(SCCSc2ccccc2)n1 | 11.4
19 | Cc1cc(C)c(-c2cc(NC(=O)COC(=O)c3ccc(NC(=O)CC#N)cc3)n(-c3ccccc3)n2)cc1C | 0.104
20 | O=C(O)/C=C/C(=O)N1Cc2cc3ccccc3nc2C1 | 1.94
21 | COC(=O)C1(C)NC(c2ccccc2C)C2C(=O)N(c3ccccc3)C(=O)C21 (stereo not shown) | 13
22 | COc1ccccc1Nc1nc(-c2sc(NC(=O)c3cccc(Cl)c3)nc2C)cs1 | 15.4

Row | Structure (SMILES) | hERG current change (%, negative = inhibition) at 10uM [%]
23 | O=C(Nc1cccc(Cl)c1)N1CCSc2cc(Cl)ccc21 | 2.92
24 | NC(=O)c1ccsc1NC(=O)c1cccs1 | -13.6
25 | O=C(CCCc1ccccc1)N=C1SC2CS(=O)(=O)CC2N1c1ccccc1 (stereo not shown) | 15.9
26 | O=c1[nH]c2ccccc2n1CCCSCCCn1c(=O)[nH]c2ccccc21 | 1.36
27 | O=C(COC(=O)C1CCN(S(=O)(=O)c2c(Cl)cccc2Cl)CC1)NCc1ccco1 | -38.6
28 | Cc1ccc(-c2nc(NCCN3CCOCC3)c3ccccc3n2)cc1 | -12.4
29 | Cc1ccc(C(=O)NC(=S)NCC2CCCO2)cc1[N+](=O)[O-] (stereo not shown) | 10.1
30 | CCc1ccc(C(CC(=O)O)N2Cc3ccccc3C2=O)cc1 (stereo not shown) | 31.2
31 | COc1cc(/C=C2/C(=N)N3C(=NC2=O)SN=C3S(C)(=O)=O)ccc1OC(=O)c1ccco1 | 19.4
32 | CCNc1nc(C)nc2c1oc1ccccc12.Cl | -7.52
33 | Cn1cccc1/C=N/NC(=O)CSc1nc2ccccc2n1C | -10.9
34 | CC(OC(=O)c1ccc(Cl)c(S(N)(=O)=O)c1)C(=O)NCc1ccc2c(c1)OCO2 (stereo not shown) | -5.89
35 | CS(=O)(=O)c1ccccc1-c1nc(-c2ccc(C(F)(F)F)cc2)no1 | 5.31
36 | CN1C[C@@H]2C[C@@H](C3=Cc4cc(Cl)ccc4OC3)N3CCC[C@@]23C1=O | -32.7
37 | O=C(COc1ccccc1)Nc1ccc(Cl)cn1 | 29
38 | Cc1ccc(CSc2nnc(-c3ccccn3)n2N)cc1 | 9.42
39 | Cc1ccc(OCCNc2ccc(C(F)(F)F)cc2[N+](=O)[O-])cc1 | 16.7
40 | CSCCC(NS(=O)(=O)c1ccc(Cl)cc1)C(=O)O (stereo not shown) | 15.3
41 | COc1ccc2oc(C(=O)OCC(=O)NCCN3C(=O)CSC3=O)c(C)c2c1 | -17.1
42 | Cc1ccc2c(c1)N(CC(=O)NC1CCCC1)C(=O)c1cccnc1O2 | 1.81
43 | Cc1ccc(CCNC(=O)CN2C(=O)COc3ccc(S(=O)(=O)N4CCOCC4)cc32)cc1 | 5.43
